# This is one part of the list. This is a noisy data set.
# T1: CSK21_Pkinase__P68400_1_335
# T1 chain: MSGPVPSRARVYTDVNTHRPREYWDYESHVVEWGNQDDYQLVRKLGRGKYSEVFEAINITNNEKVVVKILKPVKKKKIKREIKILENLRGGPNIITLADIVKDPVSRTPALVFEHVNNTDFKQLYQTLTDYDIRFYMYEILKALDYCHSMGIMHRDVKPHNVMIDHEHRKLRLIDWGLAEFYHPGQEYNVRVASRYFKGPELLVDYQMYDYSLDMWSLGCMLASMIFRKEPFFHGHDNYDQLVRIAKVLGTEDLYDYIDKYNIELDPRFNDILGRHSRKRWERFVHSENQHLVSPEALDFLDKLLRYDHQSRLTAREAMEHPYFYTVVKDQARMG
# T2: CLTC_Clathrin-propeller__Q00610_1_364
# T2 chain: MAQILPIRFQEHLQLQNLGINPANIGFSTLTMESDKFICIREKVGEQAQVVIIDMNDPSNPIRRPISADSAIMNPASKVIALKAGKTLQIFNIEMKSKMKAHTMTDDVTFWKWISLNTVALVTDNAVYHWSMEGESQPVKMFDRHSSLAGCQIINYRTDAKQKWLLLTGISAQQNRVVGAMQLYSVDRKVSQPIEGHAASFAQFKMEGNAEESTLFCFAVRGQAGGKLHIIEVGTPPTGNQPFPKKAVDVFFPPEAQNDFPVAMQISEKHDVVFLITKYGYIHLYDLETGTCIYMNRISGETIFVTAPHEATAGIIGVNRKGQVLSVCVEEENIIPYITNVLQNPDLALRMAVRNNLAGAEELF
# T3: EPHA3_Pkinase__P29320_606_947
# T3 chain: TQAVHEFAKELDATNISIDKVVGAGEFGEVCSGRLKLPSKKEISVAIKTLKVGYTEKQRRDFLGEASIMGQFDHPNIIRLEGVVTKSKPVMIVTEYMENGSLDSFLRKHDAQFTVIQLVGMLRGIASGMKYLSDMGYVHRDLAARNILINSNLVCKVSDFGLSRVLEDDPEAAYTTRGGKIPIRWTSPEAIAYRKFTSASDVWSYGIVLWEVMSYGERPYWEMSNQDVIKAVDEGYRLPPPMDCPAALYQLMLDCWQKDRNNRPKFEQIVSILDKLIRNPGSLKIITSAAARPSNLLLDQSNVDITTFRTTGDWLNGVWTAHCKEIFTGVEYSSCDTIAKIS
# T4: EPHB2_Pkinase__P29323_604_898
# T4 chain: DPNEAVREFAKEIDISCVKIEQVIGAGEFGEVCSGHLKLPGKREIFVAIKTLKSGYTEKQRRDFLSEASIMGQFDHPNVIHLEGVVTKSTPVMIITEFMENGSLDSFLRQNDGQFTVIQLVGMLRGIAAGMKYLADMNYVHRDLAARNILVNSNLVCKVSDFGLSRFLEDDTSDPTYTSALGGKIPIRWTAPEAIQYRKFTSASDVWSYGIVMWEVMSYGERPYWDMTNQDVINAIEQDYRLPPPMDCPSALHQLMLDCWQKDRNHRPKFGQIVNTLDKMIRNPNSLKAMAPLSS
# T5: AURKA_Pkinase-merged__O14965_125_391
# T5 chain: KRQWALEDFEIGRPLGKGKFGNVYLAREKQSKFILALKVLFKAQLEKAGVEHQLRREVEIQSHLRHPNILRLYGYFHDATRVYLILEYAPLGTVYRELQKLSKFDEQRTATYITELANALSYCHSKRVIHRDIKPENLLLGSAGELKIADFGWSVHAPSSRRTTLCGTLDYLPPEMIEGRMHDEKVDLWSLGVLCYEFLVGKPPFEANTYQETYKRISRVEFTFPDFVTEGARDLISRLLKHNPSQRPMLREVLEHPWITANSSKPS
# Tests used:
# Test in all cases: mutation enrichment score (mutant vs wild-type peptide binding to bait); baits are purified protein domains named by gene / domain / UniProt id / residues; peptides come from disordered regions of human proteins; higher = mutation enhances binding relative to wild type
# [1] = molecular target: CBX3_CHROMO-Shadow__Q13185_109_173; conditions: number of wild-type / mutant comparisons summed (bounds the score): 6; paper call: no_effect; wild-type window: …
# [2] = molecular target: T1, CSK21_Pkinase__P68400_1_335; conditions: number of wild-type / mutant comparisons summed (bounds the score): 6; paper call: no_effect; wild-type window: …
# [3] = molecular target: KPNA4_Arm__O00629_68_487; conditions: number of wild-type / mutant comparisons summed (bounds the score): 9; paper call: no_effect; wild-type window: …
# KPNA4_Arm__O00629_68_487, sequence (chain, as listed by the source): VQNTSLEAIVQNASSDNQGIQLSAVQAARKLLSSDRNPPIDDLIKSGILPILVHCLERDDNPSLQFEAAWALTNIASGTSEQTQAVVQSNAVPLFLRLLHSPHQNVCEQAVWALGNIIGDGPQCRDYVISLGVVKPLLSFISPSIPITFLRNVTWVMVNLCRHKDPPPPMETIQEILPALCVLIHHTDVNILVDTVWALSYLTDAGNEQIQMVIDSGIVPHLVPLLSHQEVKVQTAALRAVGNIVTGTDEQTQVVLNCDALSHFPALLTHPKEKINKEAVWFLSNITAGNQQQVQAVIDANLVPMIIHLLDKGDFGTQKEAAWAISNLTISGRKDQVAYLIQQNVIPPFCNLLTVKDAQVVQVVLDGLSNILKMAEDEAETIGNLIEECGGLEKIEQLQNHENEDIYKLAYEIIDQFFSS
# [4] = molecular target: T2, CLTC_Clathrin-propeller__Q00610_1_364; conditions: wild-type window: …
# [5] = molecular target: T3, EPHA3_Pkinase__P29320_606_947; conditions: number of wild-type / mutant comparisons summed (bounds the score): 6; paper call: no_effect; wild-type window: …
# [6] = molecular target: T4, EPHB2_Pkinase__P29323_604_898; conditions: number of wild-type / mutant comparisons summed (bounds the score): 6; paper call: no_effect; wild-type window: …
# [7] = molecular target: CREBBP_KIX__Q92793_587_673; conditions: wild-type window: …
# [8] = molecular target: T5, AURKA_Pkinase-merged__O14965_125_391; conditions: number of wild-type / mutant comparisons summed (bounds the score): 6; paper call: no_effect; wild-type window: …
# [9] = molecular target: CREBBP_NCBD__Q92793_2062_2109; conditions: number of wild-type / mutant comparisons summed (bounds the score): 5; paper call: no_effect; wild-type window: …
# [10] = number of wild-type / mutant comparisons summed (bounds the score): 12, paper call: enhanced
# [11] = number of wild-type / mutant comparisons summed (bounds the score): 6, paper call: no_effect
binder,measurement,setting,value
VWASLRSSTRLISSPTSFIDAGARLAGKDHSASFSNSSYLQ [V1286A V1286A],mutation enrichment score,[1],-4
QAELSQMQTQISETNVILSMVNNRSLDLDSIIAEVKAQYED [D340V D340V],mutation enrichment score,[2],3
AIPERRMKVQNLLPDHEYQFCVKAENEIGIGEPSLPSRPVV [R19396C R19396C],mutation enrichment score,[1],2
GGEEAKLKKRKPRVKKENKVLRLKEEHGIELSSPRHSDNPS [P1353L P1353L],mutation enrichment score,[2],2
same,mutation enrichment score,[3],0.18
LEGDNMETPVTLINFWPVDSVPASSPQLSHDDTHSRIEHYA [A3421V A3421V],mutation enrichment score,[4]; [10],12
ISQCGRLIAGGSLSSTPMSTRCSSVPPSPSFSAPSPGSGSE [P63R P63R],mutation enrichment score,[1],-2
KVSIPLTEGLDLISMLTDDAIIAAWNNEGLPSDRMSTENAA [T3464I T3464I],mutation enrichment score,[4]; [11],5
SKQDSWNSLVLADSHGDIITV [A442V A442V],mutation enrichment score,[2],4
same,mutation enrichment score,[5],4
same,mutation enrichment score,[6],3
TNIETELRPSNNLNLLSFEDLTTGGVQQKQIREHEVLIHVE [S323L S323L],mutation enrichment score,[4]; [10],6.4
TDRIISQCGRLIAGGSLSSTHMSTPCSSVPPSPSFSAPSPG [P59H P59H],mutation enrichment score,[1],-2
TDRIISQCGRLIAGGSLSSTLMSTPCSSVPPSPSFSAPSPG [P59L P59L],mutation enrichment score,[1],-2
TSLLNASSDKFVADLWKDVDHIVGLDQMAKMTESSLPSASK [R624H R624H],mutation enrichment score,[7]; [11],5
IISQCGRLIAGGSLSSTPMSRPCSSVPPSPSFSAPSPGSGS [T62R T62R],mutation enrichment score,[1],-2
EDSERRRNHNILERQRRNDLWSSFLTLRDHVPELVKNEKAA [R398W R398W],mutation enrichment score,[8],4
SASVAPRTAAEPRSPGPVPHLAQSKATEAGGGNPSGIYSAI [P26L P26L],mutation enrichment score,[1],2
AGPGDGRPNLRMKFQGAFRKWVPNPIDLLESTLYESSVVPG [G78W G78W],mutation enrichment score,[1],2
KPPGTFLLRFSESSKEGGVTLTWVEKDISGKTQIQSVEPYT [F621L F621L],mutation enrichment score,[2],-3
KPPGTFLLRFSESSKEGGVTVTWVEKDISGKTQIQSVEPYT [F621V F621V],mutation enrichment score,[2],-3
LIAGGSLSSTPMSTPCSSVPRSPSFSAPSPGSGSEQKAHLE [P69R P69R],mutation enrichment score,[1],-2
ETDRIISQCGRLIAGGSLSSAPMSTPCSSVPPSPSFSAPSP [T58A T58A],mutation enrichment score,[1],-2
ETDRIISQCGRLIAGGSLSSIPMSTPCSSVPPSPSFSAPSP [T58I T58I],mutation enrichment score,[1],-2
RGGPEREEKLTDWQKLACLLFRRQFPSKEALIRHQQLSGLH [C764F C764F],mutation enrichment score,[9],2
DNNNSDDCGNILPSDIMDFVQKNTPSMQALGESPESSSSEL [L2854Q L2854Q],mutation enrichment score,"[7]; number of wild-type / mutant comparisons summed (bounds the score): 12, paper call: diminished",-6.7
GYRILGAVAKVREAFQPQEPHFPPPPPDLEQLRLTDELAPP [D841H D841H],mutation enrichment score,[1],-2
TLGSMLAVTFLLQALVLLGLWYLQTALEGLGGVIDAGGETQ [R287W R287W],mutation enrichment score,[2],2
same,mutation enrichment score,[6],3
